“Also recorded” adds a separate entry of the source.
How the values were obtained:
HMG1 peptides [1] = molecular target: T1, HMG1 peptides (Homo sapiens, UniProt P09429); test: HMG1 B Box and peptide mapping ELISA; type: binding; details: B Box peptide ELISA
T1 sequence (P09429 150-183): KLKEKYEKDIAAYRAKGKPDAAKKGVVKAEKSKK
Procedure: (§1) HMG1 B Box and Peptide Mapping: Individual wells of a 96-well immunoplate (EIA/RIA plate, High binding, Costar) were coated with HMG1 B Box peptide amino acids 91-169 (FIG. 5A) or amino acids 150-183 (FIG. 5B) at 10 μg/ml in PBS at 4° C. overnight. The plate was then blocked with 4% milk powder dissolved in PBS at 37° C. for 1 hour. The blocking solution was removed and replaced with human anti-HMG1 antibodies at various concentrations (see FIGS. 5A-B). The plate was then washed (ELX-405 Plate washer, BIO-TEK) and secondary antibody (anti-human IgG-HRP, PIERCE) was added at a final concentration of 1:125,000 at 37° C. for 1 hour. HRP activity was detected with Sureblue HRP substrate (KPL). Plates were read at 450 nm using a Kinetic Microplate Reader (Molecular Devices). To obtain more detailed peptide mapping information, similar ELISA assays were performed using 16 biotinylated overlapping peptides spanning the HMGB1 protein from amino acid 1 to 215 as follows, maxisorp microtiter plate was coated with 2 μg/ml of NeutroAvidin (Pierce) overnight at 4° C. After washing and blocking with 1% BSA in PBS, the biotinylated peptides were individually added into the avidin coated wells and incubated for 30 min at room temperature. […] Detection was accomplished by adding 50 μl of tetramethylbenzidine (TMB) substrate (KPL) and the absorbance was read at […]. […]

HMG1 peptides [2] = molecular target: T2, HMG1 peptides (Homo sapiens, UniProt P09429); test: HMG1 B Box and peptide mapping ELISA; type: binding; details: B Box peptide ELISA; remark: listed apart in the source
T2 sequence (P09429 91-169 P98L): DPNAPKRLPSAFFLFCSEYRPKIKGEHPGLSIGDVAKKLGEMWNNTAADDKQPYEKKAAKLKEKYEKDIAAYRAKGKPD
Procedure: as §1

[3] = test system: passive CIA mouse model of arthritis; test: Passive collagen-induced arthritis (CIA) mouse model; type: in vivo
Procedure: Induction of Passive Collagen Induced Arthritis (CIA): To establish an arthritis model six-eight week old male DBA/1J mice (Jackson Labs, Bar Harbor, Me.) were used. Generally 5-8 mice per group are used, On day 0, mice were immunized with 2 mg/mouse of anti-collage mAb cocktail (Chemicon # ECM1100, 10 mg/ml) intravenously, i.v. at tail. Mice were subsequently injected with 50 μg LPS/mouse, i.p. on day 3. Each experiment had several groups of animals as follows: groups A-E in experiment 1, groups G-J in experiment 2 and groups L-N). An additional group of mice (groups F, K and O) were untreated as normal controls.
Monitoring Disease: Beginning at day 0 all animals were observed daily to assess the status of the disease in their paws, which was done by assigning a qualitative clinical score to each of the paws. Every day, each animal has its 4 paws scored according to its state of clinical disease. The scoring is done by two observers, with at least one blinded. In addition, each mouse is weighed, to follow body weight changes, at the same time the paws are scored (see FIGS. 6A and 6D)
The grading scale for the 4 lateral digits of each paw are graded as involved or not involved, i.e., 1 or 0. For example, a maximally involved left rear paw would be scored: ankle=3, midfoot=3, digits=4 (clinical score=10 units) We would repeat this for each paw and sum the scores. Mice are euthanized at day 14, or sooner if total clinical score reaches 40 and a histological evaluation of joints is performed.
Histology: Hind-limb tibiotalus joints from each animal were evaluated and scored for histologic changes as described in Badger et al., 2001, Arthritis & Rheumatism 44:128-37. Briefly, animals were sacrificed on day 32 and the hind legs were fixed in formaline and decalcified in Cal-Rite (Richard-Allen Scientific, Kalamazoo, Mich.). The paws were then removed from the legs at the distal tibial diaphysis. After routine processing, the samples were embedded and coronal sections were cut in the plane midway through the tibiotalus and talartarsal joints. Sections were stained with Safranin O and counterstained with fast Green (data not shown).
The histological characteristic of the bone and articular cartilage/periarticular soft tissue were scored separately by a blinded observer (FIGS. 13B and 13C). The bone was graded as follows: 0=normal, 1=subperiosteal fibrosis with periosteal woven bone formation, 2=Marrow inflammation, endosteal and trabecular bone resorption, 3=extensive inflammation, 4-marrow replaced by granulation tissue, little trabecular bone remaining, extensive obliteration of cortical contours. […]

B1: S6: human anti-HMG1 antibody, ATCC PTA-6143; VL/VH aa SEQ ID NO: 9/11 (antibody, listed as Homo sapiens, V domains shown)
VH: EVQLLESGGGLVQPGGSLRLSCAASGFTFSWYDMSWVRQAPGKGLEWVSRISPSGGYTMYADSVKGRFTISRDNSKNTLYLQMNSLRAEDTAVYYCARLEVGATSGGTAFDIWGQGTMVTVSS
VL: [gap - about 100 residues]
binding to HMG1 peptide 150-183 (HMG1 peptides [1]): do not bind either of the HMG1 B Box peptides
binding to HMG1 peptide 91-169 (HMG1 peptides [2]): do not bind either of the HMG1 B Box peptides
paw inflammation / clinical scores ([3]; passive CIA mice): more effective then even MTX/Renbrel therapy in reducing paw inflammation and in reducing bone loss and cartilage damage; also recorded: profound effect in diminishing the disease severity in CIA mice; also recorded: reduced clinical scores with S6 having a more dramatic effect
body weight ([3]; passive CIA mice, experiment 1): did not lose as much as the control group; also recorded: showing better efficacy
histological bone, cartilage and inflammation scores ([3]; passive CIA mice, experiment 1): greatly reduced bone, cartilage and total inflammation scores compared to the control animals; also recorded: significantly better then those treated with the MTX/Renbrel combination therapy
in vivo CIA passive ([3]; percent protection, isotype control subtracted): 60%
